Reference: PubChem BioAssay AID493005 (National Center for Advancing Translational Sciences (NCATS), 2010)
The campaign covered roughly 340,000 compounds. Fewer than 10 were called active. Inconclusive means that the source gave no clear call. Such entries were picked first, then a sample of the others. Calls follow the shape of the dose curve; as a rule, active = well fitted inhibition curve with a large enough effect in the main read-out, with a control signal flat (not every such curve was filed as active); inconclusive = small, poorly fitted or top-dose-only effect, or effect the other way, or a change in a side signal; inactive = no such curve, though single readings can be large or run the other way. Where the call is inconclusive, the potency comes from a doubtful curve fit. “Side channel” marks fits to a control or component signal instead of the main read-out.
For activity change, negative = inhibition in this document: % of control where 0% means no effect.
Potency is read from the fitted curve at half-maximal effect; tags tell the direction and shape of the fitted curve or compound fluorescence and quenching.

The compounds below were run against Tumor susceptibility gene 101 protein (Homo sapiens) (UniProt Q99816) (assay: qHTS Assay for Iinhibitors of HIV-1 Budding by Blocking the Interaction of PTAP/TSG101). Details: Fluorescence polarization, FITC-PTAP peptide / Tsg101 binding; series mostly up to 115 µM; activity change, negative = inhibition: at the top concentration.
Sequence of UniProt Q99816 (Q99816 whole entry, looked up): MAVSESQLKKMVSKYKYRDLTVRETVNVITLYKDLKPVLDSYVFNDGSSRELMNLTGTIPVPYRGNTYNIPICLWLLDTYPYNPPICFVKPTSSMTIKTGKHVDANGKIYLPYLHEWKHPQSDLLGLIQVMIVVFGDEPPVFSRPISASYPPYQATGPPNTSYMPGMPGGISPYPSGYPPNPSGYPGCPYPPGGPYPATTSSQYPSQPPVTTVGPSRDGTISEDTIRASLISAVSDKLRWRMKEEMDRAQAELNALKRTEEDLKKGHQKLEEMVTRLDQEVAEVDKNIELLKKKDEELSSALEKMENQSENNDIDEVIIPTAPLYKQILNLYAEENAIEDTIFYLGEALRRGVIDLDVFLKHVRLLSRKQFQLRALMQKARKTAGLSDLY
Text: NIH Molecular Libraries Probe Production Network [MLPCN] NIH Chemical Genomics Center [NCGC] MLPCN Grant: 1 R03 MH087464-01A1 PI Name: Dr. Eric Freed, NCI NCGC Assay Overview: Stages of the HIV-1 replication cycle, specifically virus assembly and release, provide underexploited targets for the development of novel antiviral inhibitors. The late stages of HIV-1 replication are mediated by the Gag precursor protein, Pr55Gag. Expression of Pr55Gag is both necessary and sufficient for the production of virus-like particles from Gag-expressing cells. The Gag protein hijacks key host proteins involved in endocytic machinery of the host cell to promote endosomal processing and viral budding. The budding process requires a direct interaction between a […] (PTAP) motif in the p6 domain of Gag and the cellular endosomal sorting protein known as Tsg101. In this way, the Gag PTAP motif promotes the host cells to recruit viral particles to the plasma membrane where the new viral particles are released, effectively turning the host cells into viral factories. A fluorescence anisotropy assay has been developed to quantitatively measure the PTAP-Tsg101 interaction which can be used to screen for inhibitors of this interaction.
NCGC Assay Protocol Summary: Two uL of the Tsg101 binding domain in buffer (10 mM HEPES pH 7.5; 0.15 M NaCl, 0.01% Tween 20; 3 mM EDTA;0.1 mM TCEP) was dispensed into Greiner black MB 1536-well plates (final concentration 10 uM). Then, 23 nL of compounds or DMSO were delivered to each well using a pin tool. Finally, 2 uL of a FITC-labeled peptide containing the PTAP motif (1) in the same buffer was dispensed (50 nM final concentration) and the binding was allowed to proceed for 20 min. at r.t. Fluorescent polarization was determined using FITC excitation and polarized emission filters on a Perkin Elmer Viewlux. Keywords: Tsg101, PTAP, Gag, HIV, fluorescent polarization, MLSMR, MLPCN, NIH Roadmap, qHTS, NCGC
For `CCN(CC)C(=O)Cn1cc(C=C2C(=O)N(C)C(=O)N(C)C2=O)c2ccccc21`, the Potency was inconclusive: 89.1 µM [fluorescent, single point].
`O=C1CN=C(c2ccc(F)cc2)c2oc3ccccc3c2N1` was tested, and the Potency was inconclusive: 89.1 µM [quencher, side channel, partial curve, poor fit].
For `CCOC(=O)C1CCCN(c2ccc([N+](=O)[O-])c3nonc23)C1` (centres undefined), the Potency was inconclusive: 44.7 µM [fluorescent, side channel, partial curve].
In the case of `O=C1NC(=O)N(c2ccc(F)cc2)C(=O)/C1=C/c1ccc2c(c1)CCCN2Cc1ccccc1`, the Potency is reported as inconclusive: 56.2 µM [fluorescent, side channel, partial curve, poor fit].
With `COc1ccc(N2C(=O)/C(=C/c3ccc(N(C)C)o3)C(=O)NC2=S)cc1` the Potency was inconclusive: 39.8 µM [fluorescent, side channel, partial curve].
`Nc1c(C(=O)NCc2ccco2)c2nc3ccccc3nc2n1Cc1ccccc1` was tested, and the “activity change, negative = inhibition” value was inactive: -1.51%.
`C=CCN1C(=O)/C(=C/c2cccs2)C(=O)NC1=S` was tested, and the “activity change, negative = inhibition” value was inactive: 0.325%.
In the case of `O=C(/C=C/c1ccc2c(c1)OCO2)c1c(O)n(CCc2ccccc2)c(=O)[nH]c1=O`, the Potency is reported as inconclusive: 79.4 µM [fluorescent, side channel, partial curve].
For `O=c1cc(C(F)(F)F)c2cc3c4c(c2o1)CCCN4CCC3`, the Potency was inconclusive: 8.91 µM [fluorescent, side channel, full curve, poor fit].
`CCOC(=O)[C@@]1(C#N)C(c2ccc(Cl)c(Cl)c2)[C@H](C(N)=O)N2C=C(C(C)=O)C=C[C@H]21` (some centres undefined) was tested, and the Potency was inconclusive: 56.2 µM [fluorescent, side channel, partial curve, poor fit].
For `CN1C(=O)C(=Cc2ccc(N3CCOCC3)o2)C(=O)N(C)C1=O`, the Potency was inconclusive: 56.2 µM [fluorescent, side channel, partial curve, poor fit].
`Cc1ccc(N=Nc2c(O)[nH]c(=O)[nH]c2=O)cc1S(=O)(=O)Nc1ccc(Br)cc1` was tested, and the Potency was inconclusive: 56.2 µM [fluorescent, side channel, partial curve, poor fit].
With `CCCCn1c(O)c(/C=C/C=Nc2ccccc2)c(=O)[nH]c1=O` the Potency was inconclusive: 50.1 µM [fluorescent, side channel, partial curve, poor fit].
With `COc1cccc(N2C(=O)NC(=O)/C(=C\c3cn(C)c4ccccc34)C2=O)c1` the Potency was inconclusive: 89.1 µM [fluorescent, side channel, single point].
With `O=c1[nH]c(=S)n(-c2ccc(Br)cc2)c(O)c1C=Nc1ccc(N2CCOCC2)cc1` the Potency was inconclusive: 50.1 µM [fluorescent, side channel, partial curve, poor fit].
With `C#CCN1C(=O)S/C(=C\c2ccc(N3CCOCC3)cc2C)C1=O` the Potency was inconclusive: 39.8 µM [fluorescent, side channel, partial curve, poor fit].
With `CN1C(=O)/C(=C\c2ccc(N3CCCCC3)o2)C(=O)NC1=S` the Potency was inconclusive: 50.1 µM [fluorescent, side channel, partial curve, poor fit].
For `N#CC1=C(N)Oc2n[nH]c(-c3cccs3)c2C1c1ccco1` (centres undefined), the Potency was inconclusive: 63.1 µM [fluorescent, side channel, partial curve, poor fit].
With `O=[N+]([O-])c1cccc(C2N3CCCN23)c1` (centres undefined) the “activity change, negative = inhibition” value was inactive: -2.41%.
`CC(C)OCCCNC(=O)c1c(N)n(Cc2cccs2)c2nc3ccccc3nc12` was tested, and the Potency was inconclusive: 44.7 µM [quencher, side channel, partial curve, poor fit].
With `N#CC(C#N)=NNc1ccc(-n2ccc(C(F)(F)F)n2)cc1` the “activity change, negative = inhibition” value was inactive: -1.85%.
`CC(=O)Nc1ccccc1C(=O)OCc1ccc(C(=O)c2ccccc2)cc1` was tested, and the “activity change, negative = inhibition” value was inactive: -6.08%.
`CCN(CC)c1ccc(N=Cc2c(O)n(CCC3=CCCCC3)c(=O)[nH]c2=O)cc1` was tested, and the Potency was inconclusive: 56.2 µM [fluorescent, side channel, partial curve, poor fit].
`CCN(CC)c1ccc(C=C2C(=O)N(C)C(=S)N(C)C2=O)o1` was tested, and the Potency was inconclusive: 17.8 µM [fluorescent, side channel, full curve, poor fit].
For `O=c1[nH]c(=O)n(-c2ccccc2)c(O)c1/C=C/C=Nc1ccccc1`, the Potency was inconclusive: 79.4 µM [fluorescent, side channel, partial curve, poor fit].
`Cc1cccc(N2C(=O)NC(=O)/C(=C\c3ccc4c(c3)CCCN4Cc3ccccc3)C2=O)c1` was tested, and the Potency was inconclusive: 89.1 µM [fluorescent, side channel, single point].
In the case of `COCCNC(=O)c1c(NC(=O)c2ccc(Br)o2)n(Cc2ccccc2)c2nc3ccccc3nc12`, the Potency is reported as inconclusive: 70.8 µM [fluorescent, side channel, partial curve].
With `O=[N+]([O-])c1ccc(N2CCCCCC2)c2nonc12` the Potency was inconclusive: 56.2 µM [fluorescent, side channel, partial curve, poor fit].
With `COCCOC(=O)c1c(N)n(Cc2ccccc2)c2nc3ccccc3nc12` the “activity change, negative = inhibition” value was inactive: -8.01%.
In the case of `Nc1cc2nc3ccccc3nc2cc1N`, the Potency is reported as inconclusive: 56.2 µM [fluorescent, side channel, partial curve, poor fit].
`COC(=O)C1=C(c2ccc(F)cc2OCc2ccccc2)C[C@@H]2CC[C@H]1N2C(=O)NCc1ccc(Br)cc1` was tested, and the “activity change, negative = inhibition” value was inactive: -2.61%.
In the case of `COC(=O)Cn1cc(/C=C2\C(=O)NC(=O)N(c3ccc(OC)cc3)C2=O)c2ccccc21`, the Potency is reported as inconclusive: 28.2 µM [quencher, side channel, full curve].
With `CN1C(=O)C(=Cc2ccc(N3CCCCCC3)cc2)C(=O)N(C)C1=O` the Potency was inconclusive: 79.4 µM [fluorescent, side channel, single point].
For `CCOc1ccc(N2C(=O)NC(=O)/C(=C\c3cc(OC)c(OC)cc3[N+](=O)[O-])C2=O)cc1`, the Potency was inconclusive: 28.2 µM [fluorescent, full curve].
